This is one part of the list. The full chains were built here from the parent and the listed change. Values near 0.05 are background.
B1: TEV protease; numbered along this chain (parent)
chain: MGESLFKGPRDYNPISSSICHLTNESDGHTTSLYGIGFGPFIITNKHLFRRNNGTLVVQSLHGVFKVKDTTTLQQHLVDGRDMIIIRMPKDFPPFPQKLKFREPQREERICLVTTNFQTKSMSSMVSDTSCTFPSGDGIFWKHWIQTKDGQCGSPLVSTRDGFIVGIHSASNFTNTNNYFTSVPKNFMELLTNQEAQQWVSGWRLNADSVLWGGHKVFMVKPEEPFQPVKEATQL

Variants of: B1
Test: raw area under fraction-flipped curve 0-4 h after induction (AUC4h, not background-subtracted), DNA-recorder readout of cleavage of the substrate (dimensionless); higher = more cleavage of the substrate by the protease variant
Conditions: temperature: 34 °C; time window: 0-4 h after rhamnose induction
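Also: Bxb1 expression induced with 0.2% (w/v) L-rhamnose at OD600 near 0.5, cultures sampled hourly, flipped fraction per protease–substrate barcode pair counted by paired-end Illumina sequencing.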

Row | Variant | area with substrate EDLYFQS | area with substrate EGLYFQS | area with substrate EHLYFQS | area with substrate EKLYFQS | area with substrate EPLYFQS | area with substrate ERLYFQS | area with substrate ESLYFQS | area with substrate EVLYFQS | area with substrate EWLYFQS | area with substrate EYLYFQS | area with substrate EILYFQS | area with substrate ELLYFQS | area with substrate EMLYFQS | area with substrate EQLYFQS | area with substrate ETLYFQS | area with substrate EELYFQS | area with substrate EFLYFQS
1 | MGESLFKGPRDYNPISSSICHLTNESDGHTTSLYGIGFGPFIITNKHLFRRNNGTLVVQSLHGVFKVKDTTTLQQHLVDGRDMIIIRMPKDFPPFPQKLKFREPQREERIWLVTTNFQTKSMSSMVSDTSCTFPSGDGIFWKHWIQTKDGQCGSPLVSTRDGFIVGIHSASNFTNTNNYFTSVPKNFMELLTNQEAQQWVSGWRLNADSVLWGGHKVFMVKPEEPFQPVKEATQL [C111W] | 0.0945 | 0.0891 | 0.103 | 0.0565 | 0.0877 | 0.116 | 0.0992 | 0.0697 | 0.0831 | 0.0877 | – | – | – | – | – | – | –
2 | MGESLFKGPRDYNPISSSICHLTNESDGHTTSLYGIGFGPFIITNKHLFRRNNGTLVVQSLHGVFKVKDTTTLQQHLVDGRDMIIIRMPKDFPPFPQKLKFREPQREERICLVTTNFQTKSMSSMVSDTSCTFPSGDGIFWKHWIQTKDGQCGSPLVSTRDGFIVGIHSASNFTNTNNYFTSVPKNFMELLANQEAQQWVSGWRLNADSVLWGGHKVFMVKPEEPFQPVKEATQL [T192A] | 0.112 | 0.0769 | 0.105 | 0.0873 | – | 0.0883 | 0.0797 | 0.0705 | – | – | 0.105 | 0.0854 | 0.105 | 0.111 | 0.0969 | – | –
3 | MGESLFKGPRDYNPISSSICHLTNESDGHTTSLYGIGFGPFIITNKHLFRRNNGTLVVQSLHGVFKVKDTTTLQQHLVDGRDMIIIRMPKDFPPFPQKLKFREPQREERICLVTTNFQTKSMSSMVSDTSCTFPSGDGIFWKHWIQTKDGQCGFPLVSTRDGFIVGIHSASNFTNTNNYFTSVPKNFMELLTNQEAQQWVSGWRLNADSVLWGGHKVFMVKPEEPFQPVKEATQL [S154F] | 0.108 | – | 0.0856 | – | 0.0965 | 0.0912 | 0.1 | – | – | 0.0725 | 0.0789 | 0.0889 | – | 0.0951 | – | – | –
4 | MGESLFKGPRDYNPISSSICHLTNESDGHTTSLYGIGFGPFIITNKHLFRRNNGTLVVQSLHGVFKVKDTTTLQQHLVDGRDMIIIRMPKDYPPFPQKLKFREPQREERICLVTTNFQTKSMSSMVSDTSCTFPSGDGIFWKHWIQTKDGQCGSPLVSTRDGFIVGIHSASNFTNTNNYFTSVPKNFMELLTNQEAQQWVSGWRLNADSVLWGGHKVFMVKPEEPFQPVKEATQL [F92Y] | 0.156 | – | – | 0.111 | – | 0.104 | 0.133 | 0.0981 | – | 0.122 | 0.0913 | 0.0662 | – | 0.117 | 0.118 | 0.143 | 0.0961
5 | MGESLFKGPRDYNPISSSICHLTNESDGHTTSLYGIGFGPFIITNKHLFRRNNGTLVVQSLHGVFKVKDHTTLQQHLVDGRDMIIIRMPKDFPPFPQKLKFREPQREERICLVTTNFQTKSMSSMVSDTSCTFPSGDGIFWKHWIQTKDGQCGSPLVSTRDGFIVGIHSASNFTNTNNYFTSVPKNFMELLTNQEAQQWVSGWRLNADSVLWGGHKVFMVKPEEPFQPVKEATQL [T70H] | 0.0756 | 0.0678 | – | – | – | 0.0611 | 0.0772 | 0.0409 | – | 0.0896 | 0.0991 | 0.0705 | 0.0933 | 0.0754 | – | – | –
6 | MGESLFKGPRDYNPISSSICHLTNESDGHTTSLYGIGFGPFIITNKHLFRRNNGTLVVQSLHGVFKVKDTTTLQQHLVDGRDMIIIRMPKDFPPFPQKLKFREPQREERICLVTTNFQTKSMSSMVSDTSCTFPSGDGIFWKHWIQTKDGQCGSPLVSTRYGFIVGIHSASNFTNTNNYFTSVPKNFMELLTNQEAQQWVSGWRLNADSVLWGGHKVFMVKPEEPFQPVKEATQL [D161Y] | 0.0717 | – | 0.0431 | 0.0706 | – | 0.0588 | 0.0788 | – | 0.072 | – | 0.0642 | 0.0576 | – | 0.0714 | – | 0.0673 | 0.0635
7 | MGESLFKGPRDYNPISSSICHLTNESDGHTTSLYGIGFGPFIITNKHLFRRNNGTLVVQSLHGVFKVKDTTTLQQHLVDGRDMIIIRMPKDFPPFPQKLKFREPQREERICLVTTNFQTKSMSSMVSDTSCTFPSGDGIFWKHWIQTKDGQCGSPLVSTRRGFIVGIHSASNFTNTNNYFTSVPKNFMELLTNQEAQQWVSGWRLNADSVLWGGHKVFMVKPEEPFQPVKEATQL [D161R] | 0.0731 | – | 0.0675 | – | 0.0503 | 0.0677 | 0.0558 | 0.0567 | – | – | 0.0496 | 0.0542 | – | 0.0588 | – | – | –
8 | MGESLFKGPRDYNPISSSICHLTNESDGHTTSLYGIGFGPFIITNKHLFRRNNGTLVVQSLHGVFKVKDTTTLQQHLVDGRDMIIIRMPKDFPPFPQKLKFREPQREERICLVTTNFQTKSMSSMVSDTSCTFPSGDGIFWKHWIQTKDQQCGSPLVSTRDGFIVGIHSASNFTNTNNYFTSVPKNFMELLTNQEAQQWVSGWRLNADSVLWGGHKVFMVKPEEPFQPVKEATQL [G150Q] | 0.0512 | 0.0583 | – | – | – | 0.0614 | 0.0571 | – | 0.0673 | – | 0.0635 | 0.0594 | 0.0531 | 0.0525 | – | 0.0774 | –
9 | MGESLFKGPRDYNPISSSICHLTNESDGHTTSLYGIGFGPFIITNKHLFRRNNGTLVVQSLHGVFKVKDTTTLQQHLVDGKDMIIIRMPKDFPPFPQKLKFREPQREERICLVTTNFQTKSMSSMVSDTSCTFPSGDGIFWKHWIQTKDGQCGSPLVSTRDGFIVGIHSASNFTNTNNYFTSVPKNFMELLTNQEAQQWVSGWRLNADSVLWGGHKVFMVKPEEPFQPVKEATQL [R81K] | 0.167 | – | – | – | – | – | 0.11 | 0.0916 | – | 0.105 | 0.0969 | 0.0878 | – | 0.129 | – | 0.123 | –
10 | MGESLFKGPRDYNPISSSICHLTNESDGHTTSLYGIGFGPFIITNKHLFRRNNGTLVVQSLHGVFKVKDTTTLQQHLVDGRDMIIIRMPKDFPPFPQKLKFREPQRHERICLVTTNFQTKSMSSMVSDTSCTFPSGDGIFWKHWIQTKDGQCGSPLVSTRDGFIVGIHSASNFTNTNNYFTSVPKNFMELLTNQEAQQWVSGWRLNADSVLWGGHKVFMVKPEEPFQPVKEATQL [E107H] | 0.126 | – | – | – | – | 0.18 | – | – | – | – | 0.101 | 0.12 | – | 0.101 | – | – | –

From the supplement of paper PMC12217912
